Experimental data: the supplement of paper PMC12632987
The full ranking holds about 4,500 sequences; the median of “median log2 fold change of GCK-ALFA target abundance (FLAG IP / Myc IP barcode read proportion)” is about 0.078, and the lowest 2% start at about -0.6. Some of the results follow.

B1: GBRAP_53_6419 (protein)
chain: AAAKKAALKAEILALAKAAGAADPDETLALVAEIGAKLKELKAAGASDEEITALAKEVAKALKAAGAPDRALVALADILAALGLEDATAEVVELIVEDLE
B2: GBRAP_160_4438 (protein)
chain: SEKVEKAKKEIKEIFEETLEMMKGETPEERIVFVRVAEGEVLLLLEELGLLTDELDEVIDEEFEKIIETIKKNPNITEEELEKLLKEAEEKIIEKLEKLF
B3: GBRAP_78_6591 (protein)
chain: EIDEAIDELLKATNEAMKLLAKNKSELALDILGELIDESTEIWEAREEENDKEKILKEAKALAETLKKALEHEDKFSEETVKAIKEALKAAEKLIKLLEK
B4: GBRAP_160_4870 (protein)
chain: SEKIKELKKEVEEEAEFVIELAPELSAEQVATLFEGEFGSVIIEAAESEAVSDEALDKMVEIVDEAVAKLLANKNASVEEHKKIIEEAREKIIKILEEEE
B5: GBRAP_52_6134 (protein)
chain: MKEELRKQAREILELVKAGKLAEAKALAEKLVAELNDEELRLFAEEFAEVVRELPAEDLDAAAEALDILVDAMEAAGVDESIISLFIGKGTRAMYEVEQR
B6: GBRAP_11_2730 (protein)
chain: KKEELEEIKKLAEEAAKLVDELIEEGTDNEELIAKLEKKLKELAEKVKKYADEDLKKLVEIAQEEFQLALENPETAVEHLQNALAALRVLAGQTLLEIEE
B7: GBRAP_184_5043 (protein)
chain: KIFEETIKAENLEELKAKLDKLKEKVKNFKGELIVLVESPKFTKEMVETLISRLQEMLDEGYVSSVTLGLDGEMSEEVIDLAIELADKAGIKLTIALEEE
B8: GBRAP_55_6437 (protein)
chain: SEDEELDKEASESLTEVAAGLVEDPEAMERVIRKMVESLAGKPIYITKEAVDLLETDEEKERFLKTLVRAAKEAKNVTGIKLIDTSEEVEKMLEKAKKEV

Molecular target: GABARAP, O95166
Sequence (O95166 whole entry, the tested form may be a part): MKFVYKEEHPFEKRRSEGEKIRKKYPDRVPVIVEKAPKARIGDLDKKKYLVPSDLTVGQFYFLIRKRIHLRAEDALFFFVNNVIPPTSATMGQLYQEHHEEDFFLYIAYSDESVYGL
Assay: median log2 fold change of GCK-ALFA target abundance (FLAG IP / Myc IP barcode read proportion) (log2 ratio); each designed protein is fused to an ALFA-tag nanobody in HEK293 cells to bring the named protein to FLAG-tagged glucokinase (GCK); Myc marks an untargeted standard; higher = target protein stabilised (more abundant)
Conditions: target protein: 3xFLAG-MCP-GCK-ALFA reporter; HEK293 landing pad (RPLP)
In short: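 An ALFA-nanobody-fused binder library was recombined into HEK293 landing-pad cells and induced with 2 μg mL^−1 doxycycline. Cells were transfected with a plasmid expressing a FLAG-tagged target and a Myc-tagged standard. After 48 h, lysates underwent anti-FLAG and anti-Myc immunoprecipitation, and circular RNA barcodes were reverse transcribed, amplified and sequenced. Target abundance is the per-binder median log2 ratio of FLAG to Myc barcode read proportions. Barcodes needed ≥10^−7 proportion in both replicates, binders ≥3 barcodes per replicate, and a 10^−6 pseudocount was added; the two replicates were pooled.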

| Binder | median log2 fold change |
| --- | --- |
| B1 | 0.135 |
| B2 | 0.03 |
| B3 | -0.0224 |
| B4 | -0.41 |
| B5 | 0.0637 |
| B6 | 0.181 |
| B7 | 0.279 |
| B8 | 0.125 |
